{
  "source": "paper PMC5966428",
  "about": "“Comparative inhibitory profile and distribution of bacterial PARPs, using Clostridioides difficile CD160 PARP as a model” (Scientific Reports, 2018)",
  "target": "HaPARP (Herpetosiphon aurantiacus, UniProt A9B244)",
  "assay": "Thermal stability assay (Sypro Orange melting curves)",
  "assay_type": "binding",
  "conditions": "read-out: Tm increase (ΔTm) of HaPARP",
  "data": [
    {"smiles": "NC(=O)c1cccc(N)c1", "note": "[3-aminobenzamide]", "values": [
      {"measurement": "ΔTm at 1000 µM", "result": 7, "unit": "°C"}
    ]}
  ]
}
